± gives the standard deviation of the averaged measurements. Some of the results follow.

Consider 44 sequences from the supplement of paper PMC11417369.

The experiment relates to PfAP2-LT AP2 domain (GST-tagged). Kind of experiment: gcPBM binding intensity (ln(normalized median fluorescence intensity)); higher = stronger DNA binding. The method, boiled down: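 The binding buffer was 1× PBS containing 1% milk, 0.2 mg/ml BSA, 0.5% salmon testes DNA and 0.03% Triton X-100. In it, GST-tagged P. falciparum DNA-binding domains expressed in E. coli were applied for 1 h to an Agilent 4 × 180k array of primer-extended double-stranded 36-bp intergenic genomic probes plus negative controls. Binding intensity, read with Alexa488 anti-GST antibody and a 488 nm scan, is the highest Masliner-normalised natural-log median intensity across replicate spots of either probe orientation.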
As to “TATAGTTTCATTCTTTGTACATATATATTATTATTA [XGTACX_site8527]”, the “gcPBM binding intensity (ln)” value was 8.83 ± 0.44.

As to “TTTGTATTACGTTTGTGTACATATACAATGTGTTTT [XGTACX_site7708]”, the “gcPBM binding intensity (ln)” value turned out to be 9.04 ± 0.48.

As for “CATACATATATACATACACACACATATAACCAATGT [CACACA_site8679]”, the “gcPBM binding intensity (ln)” value was found to be 9.64 ± 0.3.

With “TTTATTTATTTATGGACACACATACAAATCTTCCAG [CACACA_site4676]”, the “gcPBM binding intensity (ln)” value came to 8.76 ± 0.47.

In the case of “TCCATGCATTGACACACACACAAAAAAAAATTCTTT [CACACA_site7847]”, the “gcPBM binding intensity (ln)” value came to 9.21 ± 0.45.

Regarding “AATAATAATGCTTTAACTTTGTTGTTATTTAGAATA [CACACA_negctrl_site1144]”, the “gcPBM binding intensity (ln)” value was 8.45 ± 0.45.

As for “TATAAATAAAAGTGTACACACATTAAAATCAAACGT [CACACA_site5316]”, the “gcPBM binding intensity (ln)” value came out at 9.44 ± 0.43.

As for “ATATGTACAAAATAAGCACACACAAAAAAAAAAAAA [CACACA_site8984]”, the “gcPBM binding intensity (ln)” value turned out to be 9.48 ± 0.45.

With “AAAAAAAAAAAAAATATATATATATATATATATATA [CACACA_negctrl_site540]”, the “gcPBM binding intensity (ln)” value was found to be 10.1 ± 0.25.

For the sequence “TTTTTTTTTTTTTTTTGTACATAAATTTTTATTAGA [XGTACX_site6409]”, the “gcPBM binding intensity (ln)” value came to 8.3 ± 0.35.

“GCTTAATACAGAATAACACACAAAATAAATAAATAA [CACACA_site4041]”: the “gcPBM binding intensity (ln)” value came out at 9.08 ± 0.47.

On to “TTTTTTTTTTTTTTTGCACACTTAAATTTGGTGGCT [CACACA_site5319]”, for which the “gcPBM binding intensity (ln)” value was 8.89 ± 0.53.

As for “TATATTTGTGCGTGTACACATTTGAAAAAATATATA [CACACA_site5079]”, the “gcPBM binding intensity (ln)” value is 8.72 ± 0.44.

“TTGGCTATAGCCAATTGTACTTTTTCTCTTTGGCTT [XGTACX_site1119]”: the “gcPBM binding intensity (ln)” value stood at 8.65 ± 0.54.

On to “GACATATATACCAAACGTACATATGTGCAAGCATAA [XGTACX_site3089]”, for which the “gcPBM binding intensity (ln)” value turned out to be 9.07 ± 0.4.

Regarding “TCTTGATTAACTTAAAAAAAAAAAAAAAAAAAAAAA [CACACA_negctrl_site458]”, the “gcPBM binding intensity (ln)” value was found to be 8.02 ± 0.35.

Take “CATATAATAAATAATTGTACTTGATATAATATTATG [XGTACX_site3562]”: the “gcPBM binding intensity (ln)” value was 8.62 ± 0.45.

Regarding “ATAAATTATAATAACTGTACAAAAATAATATATTCA [XGTACX_site1856]”, the “gcPBM binding intensity (ln)” value came out at 8.73 ± 0.39.

For the sequence “TATATAATTATTTTTTGTACTCATAATAATATGAAA [XGTACX_site289]”, the “gcPBM binding intensity (ln)” value worked out at 8.35 ± 0.44.

“AATAATAATAAAAAGGTGCTGAAATATTTTTATTAT [GTGCAC_site9763]”: the “gcPBM binding intensity (ln)” value was 8.66 ± 0.46.

“ATTATTAAGGTTTATTCAAAAAAGACGTTTTTAAAT [CACACA_negctrl_site1059]”: the “gcPBM binding intensity (ln)” value was found to be 8.31 ± 0.46.

Take “AGACACGTATACGATGCACACGTATGCTTTATATAT [CACACA_site9363]”: the “gcPBM binding intensity (ln)” value came out at 9.22 ± 0.26.

As for “TATGAGAAAAAAAGTACATGCACAAAATGTATATGT [TGCATGCA_site789]”, the “gcPBM binding intensity (ln)” value amounted to 8.89 ± 0.44.

For “ATTATATAAACCAAATGTACAAAAAGGTCGTAGTGG [XGTACX_site1298]”, the “gcPBM binding intensity (ln)” value turned out to be 9.13 ± 0.47.

Take “CAACATTGTTCCTATTGTACATGAACTGTTCATACG [XGTACX_site4070]”: the “gcPBM binding intensity (ln)” value is 8.89 ± 0.4.

Consider “TTTATTTATTATTATGTACACACTATATTAAAACAT [CACACA_site700]”, for which the “gcPBM binding intensity (ln)” value was 8.82 ± 0.45.

Consider “AAATATATTTCTTTTTTTCTTATTATTAATTTGCTT [CACACA_negctrl_site1483]”, for which the “gcPBM binding intensity (ln)” value turned out to be 8.56 ± 0.57.

Regarding “TATAGATTTATATACACATGCATTTTGGTAAAGAAA [TGCATGCA_site953]”, the “gcPBM binding intensity (ln)” value stood at 8.67 ± 0.45.

Take “TATTTTTTTAATAACTGTACTTTTTTGTCAAATGGA [XGTACX_site4179]”: the “gcPBM binding intensity (ln)” value was 8.32 ± 0.49.

With “ATTGTAAGTAGACACACACACATATAGATGTATATA [CACACA_site6463]”, the “gcPBM binding intensity (ln)” value amounted to 9.48 ± 0.28.

Consider “TTAGGATTGAAGAGTTGTACATACCTCTTATTTGTT [XGTACX_site1376]”, for which the “gcPBM binding intensity (ln)” value is 8.79 ± 0.54.

Turning to “TATAAAATGTAATCTGAACACACATATTTTTTTAAT [CACACA_site8521]”, the “gcPBM binding intensity (ln)” value was found to be 8.71 ± 0.42.

As for “ATCATATATTATTTATGTACTTATTTATAATAATAT [XGTACX_site8257]”, the “gcPBM binding intensity (ln)” value worked out at 8.76 ± 0.39.

On to “TTAAAATTATAATACGTACACACCTTATCTTTTTGG [CACACA_site278]”, for which the “gcPBM binding intensity (ln)” value worked out at 8.96 ± 0.49.

As for “TGTTGTTTTATGTTGTATTGTAATATATTATATTAT [XGTACX_negctrl_site46]”, the “gcPBM binding intensity (ln)” value is 8.97 ± 0.35.

Consider “GGCGTATGTGTATATACACACCCACGTATATATATA [CACACA_site9046]”, for which the “gcPBM binding intensity (ln)” value was 9.34 ± 0.41.

For “ATATATAACGGGCACACACACATTTACGTATGAATA [CACACA_site1833]”, the “gcPBM binding intensity (ln)” value was determined as 9.61 ± 0.39.

With “ATATATGGAGCTTATACACACTTTTATATTTTAACA [CACACA_site7757]”, the “gcPBM binding intensity (ln)” value was 8.81 ± 0.38.

On to “TTGGGCATAATGTCATGTACACAAATAATTCTTTAT [XGTACX_site861]”, for which the “gcPBM binding intensity (ln)” value was found to be 8.81 ± 0.62.

For “AAACGTGTGTATAATAGTACATAATTATAACGTAAT [XGTACX_site421]”, the “gcPBM binding intensity (ln)” value came out at 9.43 ± 0.38.

Regarding “CGTATTTTTGGACATGCATGTACAAATAATCTTATG [TGCATGCA_site973]”, the “gcPBM binding intensity (ln)” value was determined as 8.76 ± 0.4.

“AAATTTGGCAAACACACACACACACCCACAGAGACA [CACACA_site4490]”: the “gcPBM binding intensity (ln)” value was determined as 10.2 ± 0.13.

With “AATGTTTTTGTGAGATGTATAAATTTTATTTTATTT [XGTACX_negctrl_site413]”, the “gcPBM binding intensity (ln)” value was 8.61 ± 0.47.

As for “AAAAAAATAATGTACACACACATATAGGTTTATATA [CACACA_site192]”, the “gcPBM binding intensity (ln)” value was found to be 9.18 ± 0.46.
